The test system of the assay is persistent sodium current in neuroblastoma cells. The experiment in a line: Voltage-clamp, veratridine-induced persistent sodium current. As for the experimental part: This experiment was undertaken by the method disclosed by Verdonck et al., Eur. J. Pharmacol., 203:371, 1991. Neuroblastoma cells were used. Isolated cells were strewn over a recording chamber filled with perfusion fluid; the membrane currents are recorded in a whole cell configuration by the voltage-clamp method based on the use of a glass microcapillary. Current components due to ions other than sodium ion were eliminated as follows. The potassium current was removed by cesium ion introduced in the capillary, and the calcium current was removed by cobalt ion added to the perfusion fluid. Measurement of the transient sodium current of the cells was achieved by applying depolarizing pulses at appropriate intervals to the cells clamped at holding potential, and by observing a transient inward current elicited therewith. The compound of Example 51 of this invention was added to the perfusion fluid; and its effect on the peak value of the inward current was followed. […] Observation of the persistent sodium current was achieved by adding veratridine to the perfusion fluid to 100 μmol/L, and shifting the holding potential towards depolarization, which caused a persistent inward current to develop in the cells. […] From results, concentration of the compound of this invention represented in Example 51 to inhibit the persistent sodium current by 18% is calculated at 7.2 μM. […]

As to `CC(C)Oc1ccc(N(C)CCC2(O)CCN(CCc3ccc(C#N)cc3)CC2)cc1.Cl.Cl` [Example 51, 1-[2-(4-cyanophenyl)ethyl]-4-[2-[N-methyl-N-(4-isopropoxyphenyl)amino]ethyl]piperidin-4-ol dihydrochloride], under “selectivity persistent vs transient”, the “Ratio of concentration inhibiting the transient sodium current by 18% against that for the persistent sodium current” value turned out to be 7.4. For the same compound, where the note is “veratridine 100 μmol/L, calculated from results”, the “Concentration to inhibit the persistent sodium current by 18%” value is 7.2 µM.

The values are drawn from patent publication US6642257B2, “Agents for treating neuropathic pain” (Mochida Pharmaceutical Co., Ltd., priority 1999, dated 2003).
